Reference: PubChem BioAssay AID2202238 (Ras Initiative Chemistry Research Team, Frederick National …, 2025)
Some of the results follow. Further columns of the screen follow, without active or inactive calls.

Target: GTPase KRas (Homo sapiens) (UniProt P01116)
Assay: Fragment capture on engineered cysteines, share of protein labelled (AID 2202238)
Set-up: protein at 5 µM with 500 µM competing thiol for 1.5 h
Details: KRAS G12D cysteine mutants, disulfide tethering, MALDI-TOF labeling, stronger effect = higher value, fragment at 500 µM
[1] = measured here: G75C mutant labeling
[2] = measured here: H94C mutant labeling
[3] = measured here: I36C mutant labeling
[4] = measured here: L120C mutant labeling
[5] = measured here: M67C mutant labeling
[6] = measured here: M72C mutant labeling
[7] = measured here: N86C mutant labeling
[8] = measured here: P121C mutant labeling
[9] = measured here: S122C mutant labeling
[10] = measured here: S136C mutant labeling
[11] = measured here: G60C mutant labeling
[12] = measured here: N26C mutant labeling

Chain of UniProt P01116 (P01116 whole entry, looked up, the tested form may be a part): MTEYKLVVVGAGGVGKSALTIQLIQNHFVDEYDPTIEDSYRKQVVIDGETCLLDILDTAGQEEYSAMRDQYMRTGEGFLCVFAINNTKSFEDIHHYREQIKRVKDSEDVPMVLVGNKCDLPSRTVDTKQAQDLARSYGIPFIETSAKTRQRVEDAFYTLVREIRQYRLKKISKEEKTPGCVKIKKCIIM

Row | SMILES | percent labeling [1] [%] | percent labeling [2] [%] | percent labeling [3] [%] | percent labeling [4] [%] | percent labeling [5] [%] | percent labeling [6] [%] | percent labeling [7] [%] | percent labeling [8] [%] | percent labeling [9] [%] | percent labeling [10] [%] | percent labeling [11] [%] | percent labeling [12] [%]
1 | Cc1cc2c(N3CC(NC(=O)CCS)C3)nccn2n1 | 14.1 | 27.4 | 28.2 | 25.1 | 41.3 | 29.2 | 14.2 | 25.8 | 26.3 | 40.8 | – | –
2 | CN1C(=O)C(C)(C)c2cc(C(=O)NCCS)ccc21 | 17.5 | 34.2 | 25.2 | 40.8 | 34.5 | 52.1 | 23 | 27.2 | 30.3 | 52.9 | 37.7 | 48.1
3 | CC(C)n1nc(NC(=O)CCS)cc1CO | 12.2 | 32.5 | 31.2 | 28.7 | 23.4 | 17.9 | 22.1 | 31.8 | 32.2 | 45.7 | – | –
4 | Cn1nc2cc(Br)ccc2c1C(=O)NCCS | 8.3 | 12.6 | 10.6 | 9.8 | 10.1 | 18.5 | 9.6 | 12.6 | 6.6 | 10.8 | 27.2 | 36.2
5 | CN1CCOCC1c1n[nH]c(CNC(=O)CCS)n1 (stereo unspecified) | 7.3 | 27 | 29.2 | 32 | 33.5 | 13 | 12.8 | 28.8 | 36.3 | 35.5 | – | –
6 | COc1cc(-n2cnnn2)c(Cl)cc1C(=O)NCCS | 7.3 | 12.6 | 13.5 | 0 | 11.6 | 22.5 | 12.9 | 12.9 | 8.9 | 18.8 | 15.2 | 18.7
7 | Cc1ccc2nc(C)c(C(=O)NCCS)cc2c1 | 13.2 | 15.5 | 7.9 | 10.5 | 10.4 | 16.6 | 10.8 | 11.9 | 8.6 | 10.3 | 20.2 | 44.4
8 | CC(C)(C(=O)NCCS)c1cccc(C(F)(F)F)c1 | 16.4 | 27.4 | 15.4 | 26.5 | 22.5 | 29.7 | 19.2 | 19.3 | 18.8 | 29.1 | 39.4 | 29.6
9 | O=C(CCS)Nc1nnc(Cc2ccc(C(F)(F)F)cc2)s1 | 7.8 | 13.1 | 11.8 | 12.2 | 13.9 | 18.3 | 13.7 | 15.4 | 4.6 | 32.4 | – | –
10 | O=C(CCS)NCc1cc(C2CCC2)n[nH]1 | 17.9 | 33.5 | 40.7 | 27.7 | 35 | 34.1 | 22.2 | 36.6 | 34.2 | 47 | – | –
11 | N#Cc1cnn(-c2ccc(C(=O)NCCS)cc2)c1N | 11.8 | 23.4 | 20.3 | 24 | 23.8 | 36.6 | 23.9 | 20.9 | 18.8 | 27.4 | 27 | 35.8
12 | COc1cccc(OCCNC(=O)CCS)c1O | 12.2 | 29.6 | 35.7 | 38.4 | 32.9 | 22.7 | 14.3 | 33 | 35.8 | 46.6 | – | –
13 | CCC(Cc1cccc(Br)c1)C(=O)NCCS (stereo unspecified) | 17.1 | 25.1 | 16.7 | 16 | 22.7 | 34.9 | 14.2 | 20.7 | 13.8 | 22.4 | 51.6 | 28.3
14 | O=C(CCS)Nc1cccc(OC2CCCCC2)c1 | 13.1 | 16.7 | 12.1 | 21.9 | 9.9 | 33.7 | 9.6 | 16.9 | 12.5 | 29.4 | – | –
15 | CCOC(=O)c1cnc(CNC(=O)CCS)nc1C(F)F | 7 | 18.8 | 21.4 | 29.7 | 28.8 | 19.2 | 15.6 | 24.8 | 32.7 | 36 | – | –
16 | O=C(CCCNC(=O)c1ccc(Cl)cc1)NCCS | 15.2 | 25.8 | 19.2 | 26.7 | 24.1 | 20.1 | 21 | 24.5 | 19.6 | 24.7 | 30.7 | 47.2
17 | CCOc1cc(C(=O)N(C)C)ccc1NC(=O)CCS | 14 | 39.2 | 41.7 | 31.2 | 43.8 | 33.2 | 34.1 | 32.4 | 37 | 57.6 | – | –
18 | CC(C(=O)NCCS)c1ccc2c(c1)OCCO2 (stereo unspecified) | 17.2 | 36 | 29.7 | 41 | 29.7 | 35.1 | 25.7 | 27.7 | 28.3 | 50 | 60.5 | 37.1
19 | CCCOc1ccc(C(F)(F)F)cc1NC(=O)CCS | 15.2 | 69.7 | 18.1 | 11.8 | 17.6 | 31 | 13.7 | 15.8 | 9.8 | 24.8 | – | –
20 | CC(C)c1ccc2cc(C(=O)NCCS)[nH]c2c1 | 9.9 | 7.5 | 5.5 | 13 | 4.6 | 29.7 | 0 | 9.7 | 4.5 | 8 | 32.7 | 20.9
21 | NC(=O)c1cc(CNC(=O)CCS)n2c1COCC2 | 4.9 | 16.4 | 22.7 | 14.4 | 20 | 8.9 | 13.3 | 15.9 | 18.1 | 22.7 | – | –
22 | CC(C(=O)NCCS)n1nnc(-c2ccccc2)n1 (stereo unspecified) | 9.7 | 18.7 | 16.4 | 32.4 | 36.4 | 32 | 14.1 | 20.1 | 18.4 | 26.1 | 23.1 | 26.7
23 | Cc1nn(C)c2[nH]c(=O)c(CCC(=O)NCCS)c(C)c12 | 16.7 | 27.2 | 43.8 | 28.2 | 37.6 | 28.9 | 29.5 | 29.4 | 21.6 | 39.1 | 46 | 42.5
24 | COc1cccc(COC(C)C(=O)NCCS)c1 (stereo unspecified) | 16.2 | 33.7 | 22 | 33.9 | 32.6 | 28.1 | 22.3 | 31.1 | 32.4 | 55 | 39.3 | 38.1
